The full ranking holds about 33,000 sequences; the median of “E-score (-0.5 to 0.5)” is about -0.017, and the highest 2% start at about 0.3. Some of the results follow.

In this test the target is T1, Sut1 (UniProt P53032).
T1 sequence: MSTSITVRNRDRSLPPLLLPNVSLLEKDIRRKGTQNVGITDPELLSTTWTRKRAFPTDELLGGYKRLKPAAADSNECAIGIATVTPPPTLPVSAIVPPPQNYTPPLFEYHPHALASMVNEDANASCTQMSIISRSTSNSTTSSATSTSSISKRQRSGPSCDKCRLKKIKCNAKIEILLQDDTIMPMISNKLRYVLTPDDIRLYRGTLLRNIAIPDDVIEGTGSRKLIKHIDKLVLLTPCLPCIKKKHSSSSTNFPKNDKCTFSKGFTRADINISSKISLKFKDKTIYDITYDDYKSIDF
The test can be described thus: PBM E-score (8-mer binding enrichment) (E-score (-0.5 to 0.5)); higher = stronger / more preferred TF binding; most listed sequences are background and not binding sites. The settings on record: protein concentration: 200 nM; construct: GST-full length. The method in brief: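 Universal all-10-mer Agilent arrays, fresh or stripped once, were converted to double-stranded form by primer extension. GST-tagged yeast transcription factors from PURExpress in vitro transcription/translation, full-length or DNA-binding domain only, were applied at about 100-200 nM and detected with fluorescent anti-GST. After masliner normalisation, the Universal PBM Analysis Suite scored each ungapped eight-base word together with its reverse complement by E-score.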
Consider ATTAACTG, for which the “PBM E-score” value is 0.239.
In the case of GATCGGAA it was 0.159.
In the case of GAATAAGC it was 0.0408; in that of ACAAAGAA, 0.186; in that of TGCTAGAA, 0.0342.
In the case of CTGAGGCC it was -0.104; in that of GTCTCCTA, -0.156; in that of AACGCCTT, 0.0207.
For the sequence ATTTGGCC, the “PBM E-score” value is -0.12.
In the case of CAGCTCAA it was 0.0662; in that of CGGCGTTA, -0.0139.
In the case of ATCATAAT it was 0.243; in that of CTCGGTTC, 0.015.
For the sequence AGAGTGCT, the “PBM E-score” value was found to be 0.0233.
Take AAGTATTC: the “PBM E-score” value worked out at 0.0806.
In the case of ACAGCTCA it was -0.0906; in that of TACGTAGA, -0.0486.
Consider ATAGACAG, for which the “PBM E-score” value came out at 0.0775.
In the case of CATTCCGC it was 0.0668; in that of GGATATAC, 0.197.
In the case of AAATCACC it was 0.173; in that of AATCCGCT, -0.0383.
With GTCAAAGA, the “PBM E-score” value was found to be 0.0425.
Consider GCACAGGA, for which the “PBM E-score” value is -0.207.
Take AACTTGAA: the “PBM E-score” value came out at 0.157.
Take CTTTCTGA: the “PBM E-score” value is 0.103.
In the case of CGGCGTGA it was -0.0279; in that of AGGGTGCA, -0.23.
In the case of CCTACCAA it was 0.088; in that of CCCTGCGA, -0.293.
In the case of CGTCGCAA it was 0.0231; in that of CGTCGGCA, -0.202.
As to AGCTGTAA, the “PBM E-score” value was found to be 0.0568.
CCGGTGCA: the “PBM E-score” value was -0.0689.
In the case of TATGGTCA it was 0.00542; in that of CTCATATC, -0.0281.
In the case of CCTTTGAG it was -0.192; in that of CCGGCAGG, -0.127; in that of ATTCACGC, -0.112.
In the case of ATGATGCC it was -0.0758; in that of AACCGGGC, -0.105.
Regarding GAAGCCCA, the “PBM E-score” value was -0.216.
For GATGTACC, the “PBM E-score” value is -0.0304.
In the case of GACTACGA it was 0.0667; in that of AGTTATGG, 0.115; in that of CCCTTCAG, -0.155.
In the case of ATCTCAGA it was -0.13.
On to CACCGATA, for which the “PBM E-score” value was 0.04.
In the case of CACCTAAG, the “PBM E-score” value was -0.0227.
In the case of TATAAGGA it was 0.219; in that of TAAGTAGA, 0.162; in that of GATAGACC, -0.125.
In the case of CACCAGGC it was -0.314; in that of ATAAAAAC, 0.216.
In the case of CCTCCTAA it was -0.0828; in that of CAGTTTGC, -0.0406; in that of CATAAAGG, 0.125.
For the sequence CAGTCTCC, the “PBM E-score” value stood at 0.0248.
In the case of ATTGAGCC it was -0.00032.
With ACTGGACC, the “PBM E-score” value was -0.112.
In the case of ATCATGAA it was 0.0787; in that of GAATGTGC, -0.115; in that of AAGACATG, -0.19.
In the case of CAGCGCAA it was -0.155.
GGCCCAAA: the “PBM E-score” value was -0.141.
On to CGGGCCAG, for which the “PBM E-score” value is -0.142.
In the case of CTTGGGGC, the “PBM E-score” value is -0.245.
In the case of CGTAAGCA it was -0.164; in that of AGATAAAC, 0.156.
In the case of CAGTCCAG it was -0.325.
Regarding AGCCTCTC, the “PBM E-score” value was -0.217.
In the case of CAGCAGCG it was -0.221; in that of CCTGCGAC, -0.301.
In the case of CCACACCG it was -0.162; in that of CCATGTGC, -0.015.
In the case of AATGCAGT, the “PBM E-score” value was -0.103.
As to ACTGGATG, the “PBM E-score” value is -0.251.
In the case of AGCCAGGG it was -0.376.
In the case of GACCCCAA it was -0.241.
As to AGTTTAAA, the “PBM E-score” value worked out at 0.335.
In the case of ATGAGGGA it was -0.166; in that of AGATGTTG, -0.108; in that of AGCTAGCA, -0.14.
In the case of ACAGTTAT it was 0.0653; in that of GCAGAAGC, -0.0924.
Turning to GACGCTCA, the “PBM E-score” value was -0.191.

The values are drawn from the supplement of paper PMC3334620.
